Reference: paper PMC3929961 (Molecular cell, 2013)

Molecular target: the molecule itself
Experiment: negative-stain EM

B1: Escherichia coli DnaB S36R/I85R (constricted double-arginine mutant) (enzyme)
chain: not shown
B1: binds.

B2: Escherichia coli DnaB T86C/A121C, oxidized (dilated mutant) (enzyme)
chain: not shown
modifications: disulfide bonds between the introduced cysteines at 86 and 121 (oxidized)
B2: binds.
